The campaign covered roughly 48,000 compounds. About 450 (0.94%) were called active. Roughly 19% stayed inconclusive and do not appear here. Calls follow the shape of the dose curve; as a rule, active = well fitted inhibition curve with a large enough effect; inconclusive = small, poorly fitted or top-dose-only effect; inactive = no such curve, though single readings can be large or run the other way. The list shows a part of the results.
Experiment: Primary qHTS for Identification of Small Molecule Inhibitors of Huntingtin Promoter Activity; also: nearly all actives have a fitted effect of over 50% in size
Settings: HEK293 HTT promoter firefly luciferase reporter (activity 0% = vehicle and -100% = no light), 24 h; series mostly up to 57.5 µM; activity change, negative = inhibition: at the top concentration
Method in brief: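 Quantitative HTS used concentration series of up to 57.5 uM final on HEK293 luciferase reporter cells, 24 h at 37 degrees C. Readout was Dual-Glo firefly luminescence.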
With `Cc1ccc(S(=O)(=O)NCc2nc(-c3cccc(C)c3)no2)cc1` the “activity change, negative = inhibition” value was inactive: -20.6%.
For `COc1ccccc1CNC(=O)CCCn1c(=O)c2ccccc2n(CC(=O)Nc2c(C)cc(C)cc2C)c1=O`, the “activity change, negative = inhibition” value was inactive: -1.41%.
For `COCCCNC(=O)c1ccc2c(c1)N(Cc1ccccc1)C(=O)c1ccccc1S2`, the “activity change, negative = inhibition” value was inactive: -13.3%.
In the case of `O=C(CSc1nc(=O)n(CCN2CCOCC2)c2c1CCC2)Nc1ccccc1`, the “activity change, negative = inhibition” value is reported as inactive: -16.2%.
For `CCOC(=O)c1sc(NC(=O)C2c3ccccc3Oc3ccccc32)c(C(=O)OCC)c1C`, the “activity change, negative = inhibition” value was inactive: -39.4%.
For `CCOC(=O)c1cccnc1`, the “activity change, negative = inhibition” value was inactive: 11.7%.
With `CCn1cc(C(=O)NCc2ccccc2Cl)c(=O)c2cc(S(=O)(=O)N3CCc4ccccc4C3)ccc21` the “activity change, negative = inhibition” value was inactive: -10.7%.
With `COc1ccc(C(=O)Nc2nnc(S(=O)(=O)N(CC(C)C)c3ccc(C)cc3)s2)cc1OC` the “activity change, negative = inhibition” value was inactive: -1.4%.
In the case of `CN(C)CCOC(=O)COc1ccc(Cl)cc1`, the “activity change, negative = inhibition” value is reported as inactive: 8.24%.
With `O=C(Nc1cc(C(F)(F)F)ccc1Cl)c1cc(-c2ccc3c(c2)OCCO3)on1` the “activity change, negative = inhibition” value was inactive: -6.83%.
In the case of `COC(=O)c1cccnc1-n1c(=O)c2cccnc2n(CC(=O)Nc2ccc(C)cc2C)c1=O`, the “activity change, negative = inhibition” value is reported as inactive: -2.27%.
With `O=C(Nc1ccc(S(=O)(=O)Nc2ncccn2)cc1)c1ccccc1Cl` the “activity change, negative = inhibition” value was inactive: 3.46%.
For `Cc1ccc2c(c1)N(C(=O)CCC(=O)NCc1ccccc1Cl)CC(C)O2` (configuration not stated), the “activity change, negative = inhibition” value was inactive: -30.9%.
With `CC(NC(=O)Cn1c(=O)oc2cc(S(=O)(=O)NCc3ccccc3)ccc21)c1ccccc1` (configuration not stated) the “activity change, negative = inhibition” value was inactive: -22.8%.
With `Cc1ccccc1Nc1nc(-c2cccc(Cl)c2)c2c(n1)-c1ccccc1OC2` the “activity change, negative = inhibition” value was inactive: -10.8%.
For `COc1ccc(NC(=O)CSc2nnc(NC(=O)Nc3ccccc3)s2)cc1OC`, the “activity change, negative = inhibition” value was inactive: 25.2%.
In the case of `CC(=O)c1ccc(NC(=O)COc2ccccc2-c2nc(-c3cccc(C)c3)no2)cc1`, the “activity change, negative = inhibition” value is reported as inactive: 1.51%.
With `CN(C(=O)Cn1cc(S(=O)(=O)Cc2ccccc2Cl)c2ccccc21)c1ccccc1` the “activity change, negative = inhibition” value was inactive: -27.7%.
In the case of `Cc1ccc(Cl)cc1N1CCN(S(=O)(=O)c2ccc3c(c2)CC(C)N3C(=O)C2CCC2)CC1` (configuration not stated), the activity change, negative = inhibition is reported as inactive: -17.8% [at 11.5 µM].
For `CC(=O)c1ccc(NC(=O)c2sc(-n3nc(C)c(Cc4ccccc4)c3C)nc2C)cc1`, the “activity change, negative = inhibition” value was inactive: 2.86%.
In the case of `Cn1c(=O)c2c(ncn2CC(=O)Nc2cccc(Cl)c2Cl)n(C)c1=O`, the “activity change, negative = inhibition” value is reported as inactive: -8.97%.
With `Cc1ccccc1C(=O)NC1(C(F)(F)F)C(=O)Nc2c1c(=O)[nH]c(=O)n2-c1ccc(F)cc1` (configuration not stated) the “activity change, negative = inhibition” value was inactive: -1.07%.
In the case of `COc1cccc(Cn2c(CNC(=O)c3cc([N+](=O)[O-])ccc3Cl)nc3cccnc32)c1`, the “activity change, negative = inhibition” value is reported as inactive: -21.9%.
In the case of `CCN(Cc1ccccc1)Cc1c(O)ccc2c(=O)c(-c3ccc(Cl)cc3Cl)coc12`, the “activity change, negative = inhibition” value is reported as inactive: -18.9%.
For `Cc1noc(/C=C/c2cccs2)c1S(=O)(=O)N1CCC(C(=O)NCc2ccccc2Cl)CC1`, the “activity change, negative = inhibition” value was inactive: -22.3%.
With `CCCCNC(=O)CCCn1c(=O)c2ccccc2n(CC(=O)Nc2ccccc2OCC)c1=O` the “activity change, negative = inhibition” value was inactive: -3.93%.
In the case of `COc1cc(/C=C(\C#N)c2nc3ccccc3[nH]2)ccc1OCc1cccc(C(F)(F)F)c1`, the “activity change, negative = inhibition” value is reported as inactive: -29%.
In the case of `CCOc1ccccc1NC(=O)c1ccc(F)c(S(=O)(=O)NCc2ccc3c(c2)OCO3)c1`, the “activity change, negative = inhibition” value is reported as inactive: -29.5%.
With `CCOc1ccccc1NC(=O)N1CCc2c(sc(C)c2CC)C1c1ccccc1` (configuration not stated) the “activity change, negative = inhibition” value was inactive: -29.6%.
For `COc1ccc(CNc2ncnc3onc(-c4ccc(F)cc4)c23)cc1`, the “activity change, negative = inhibition” value was inactive: -27.8%.
For `O=C(Cn1c(=O)n(-c2ccc(Cl)cc2)c(=O)c2sc3ccccc3c21)NC1CCCC1`, the “activity change, negative = inhibition” value was inactive: -7.83%.
In the case of `c1ccc(CN2CCN(c3ncnc4c3cnn4-c3ccccc3)CC2)cc1`, the “activity change, negative = inhibition” value is reported as inactive: 4.1%.
With `CCc1ccc(-n2nc(CO)c(C(=O)NCCCc3ccccc3)n2)cc1` the “activity change, negative = inhibition” value was inactive: -1.84%.
In the case of `Cc1ccccc1Cn1c2ccccc2c2cnn(CC(=O)NCc3ccccn3)c(=O)c21`, the “activity change, negative = inhibition” value is reported as inactive: -1.91%.
With `CCSc1ccccc1C(=O)Nc1ccc(-c2nc3ccccc3s2)c(O)c1` the “activity change, negative = inhibition” value was inactive: 29.9%.
With `O=C(NCCc1ccccc1)C1CCC(CNS(=O)(=O)c2ccc(Cl)cc2)CC1` (configuration not stated) the “activity change, negative = inhibition” value was inactive: 9.84%.
In the case of `CCOC(=O)c1cccc(NC(=O)C2Cc3ccccc3N2C(=O)c2ccccc2)c1` (configuration not stated), the “activity change, negative = inhibition” value is reported as inactive: -1.02%.
In the case of `O=C(OCc1ccccc1)c1ccccc1`, the “activity change, negative = inhibition” value is reported as inactive: 25.5%.
In the case of `CCOc1ccc(C(=O)NC2CC(=O)N(c3ccc(C)cc3)C2)cc1OCC` (configuration not stated), the “activity change, negative = inhibition” value is reported as inactive: -6.17%.
For `Cc1ccc(-c2nc(NC(=O)CSc3nc(C)nc4sc5c(c34)CCCC5)ns2)cc1`, the “activity change, negative = inhibition” value was inactive: -9.22%.
With `Cc1cccc(-n2ncc3c(Nc4ccc(C)c(Cl)c4)ncnc32)c1` the “activity change, negative = inhibition” value was inactive: 11.9%.
With `COc1ccc(NC(=O)c2c(-c3ccccc3)c(-c3ccccc3)nn(C)c2=O)cc1OC` the “activity change, negative = inhibition” value was inactive: -6.85%.
For `Cc1ccc(C)c(Cn2c(=O)n(C(C)C)c(=O)c3oc4ccccc4c32)c1`, the “activity change, negative = inhibition” value was inactive: 4.59%.
For `Cc1ccccc1CNC(=O)CN1C(=O)C2CCCCN2c2ccc(C(=O)N3CCCC3)cc21` (configuration not stated), the “activity change, negative = inhibition” value was inactive: -8.44%.
In the case of `CCc1nn(CC(=O)N2CCCCC2)c(=O)c2cc3sc(C)cc3n12`, the “activity change, negative = inhibition” value is reported as inactive: -7.26%.
With `Cc1ccccc1NC(=O)CCS(=O)(=O)c1cc(Br)cc2c1N(C(=O)C1CC1)CC2` the “activity change, negative = inhibition” value was inactive: -12.4%.
For `COc1ccc(-c2cn3cccnc3n2)cc1NC(=O)Nc1ccc(Cl)cc1`, the “activity change, negative = inhibition” value was inactive: 36.9%.

— PubChem BioAssay AID1508623 (National Center for Advancing Translational Sciences (NCATS), 2021)
